# Laboratory results from the BET-seq Pho4 binding data (Le et al. 2018).
# The list shows a part of the results. Values were computed here from the reads of four pooled replicates and scatter widely.
# Biological target: T1, Pho4 (S. cerevisiae) (UniProt P07270)
# T1 sequence: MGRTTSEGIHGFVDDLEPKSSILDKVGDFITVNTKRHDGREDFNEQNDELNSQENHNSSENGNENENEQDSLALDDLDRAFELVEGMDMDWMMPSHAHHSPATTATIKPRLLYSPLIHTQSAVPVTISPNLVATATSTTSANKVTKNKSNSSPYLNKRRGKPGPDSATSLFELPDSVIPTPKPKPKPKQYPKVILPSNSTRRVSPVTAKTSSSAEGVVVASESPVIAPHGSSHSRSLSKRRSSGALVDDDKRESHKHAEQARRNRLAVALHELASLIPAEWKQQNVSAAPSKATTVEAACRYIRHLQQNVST
# Experiment: relative binding free energy (BET-seq); higher = weaker binding
# Settings: reference: library average
row,Sequence,relative binding free energy [kcal/mol]
1,TTGTTCACGTGTGAGC,0.32
2,ACGGGCACGTGTGGAA,-0.03
3,TATTTCACGTGGGGAC,0.21
4,CAGGTCACGTGTGGGA,0.03
5,TCGTGCACGTGGGTAG,-0.15
6,GTTATCACGTGTTCTA,0.11
7,TTTAACACGTGGTGGC,-0.03
8,TTAGTCACGTGATCTA,0.13
9,GATTGCACGTGGAAGT,0.21
10,GGTTTCACGTGCATTA,0.42
11,TGTAGCACGTGGTTTT,-0.09
12,TGTTTCACGTGGGAGT,0.19
13,TGCGGCACGTGTGTGT,-0.17
14,GATTTCACGTGAGGTG,0.59
15,TACATCACGTGGGGAG,0.07
16,TGTAACACGTGCGTGT,-0.1
17,ATTTACACGTGAGTGT,0.26
18,ATTCACACGTGATGGT,0.14
19,GTGTCCACGTGTTTAG,0.15
20,TGGAGCACGTGGATAT,-0.09
21,TGTACCACGTGGGGAT,-0.17
22,ATTTACACGTGTTCAT,-0.04
23,GTTTGCACGTGTGCAA,-0.03
24,TAGAACACGTGAGAGG,0.35
25,AGATTCACGTGCTTTA,0.22
26,GCAGACACGTGGGTTT,0.05

row,Sequence,relative binding free energy [kcal/mol]
1,CTGGGCACGTGGGGCC,-0.32
2,TGTGTCACGTGAAGGT,0.31
3,TCAGACACGTGTGGTA,0.07
4,TATGACACGTGTGGAA,0.06
5,TTGAACACGTGCTTGT,-0.01
6,GGAATCACGTGTCGTT,0.19
7,GGTCTCACGTGTAATG,0.16
8,TAGCTCACGTGGAGTT,0.27
9,CGATGCACGTGTAGGT,0.02
10,TTACTCACGTGGGGTT,0.09
11,GTAGTCACGTGTTTTA,0.24
12,GCGAGCACGTGTTTTG,0.02
13,TGGGGCACGTGGCTAT,-0.08
14,GTGGTCACGTGTGGAA,0.02
15,AAGTTCACGTGGTAAT,0.27
16,TGAGTCACGTGTCTGG,0.07
17,GGTTTCACGTGCGCTA,0.33
18,GTGGTCACGTGGGTGC,0.05
19,AACGGCACGTGAGAGG,0.2
20,TTGTGCACGTGATTCT,0.16
21,GTATCCACGTGATGGT,0.21
22,TTTGACACGTGTTCTA,-0.06
23,GGGTACACGTGGTATG,-0.07
24,ATGATCACGTGGGCAT,0.05
25,TCGTGCACGTGTTGTT,0.06
26,CTTGTCACGTGTGTTG,0.16

row,Sequence,relative binding free energy [kcal/mol]
1,TGGGTCACGTGCAGTT,0.13
2,CTGAGCACGTGGGTCG,-0.17
3,ACGGGCACGTGAATGT,0.03
4,AGAAGCACGTGTCTGG,-0.01
5,GGCGGCACGTGTAGTA,0.01
6,GGTTGCACGTGCCATG,0.01
7,AGTGGCACGTGAGCGT,-0.01
8,TTGTACACGTGCGGGA,0.08
9,TGATTCACGTGTTGCT,0.32
10,GTCGTCACGTGGTGCA,0.09
11,TGGTACACGTGAAGAA,0.27
12,TTATCCACGTGGATGT,-0.01
13,AATGTCACGTGGTAAA,-0.06
14,GTAGTCACGTGGCTTG,0.09
15,TTAGGCACGTGGCAAG,-0.26
16,TATCGCACGTGTCGGG,0.04
17,TTGTTCACGTGATTAA,0.33
18,GGAAACACGTGGGTTG,-0.19
19,GAAGGCACGTGGGTTA,-0.21
20,GTTTGCACGTGACGGG,0.16
21,ATGTCCACGTGGGCTT,-0.07
22,AAGGGCACGTGAATTG,0.13
23,TAAGTCACGTGCGGTA,0.11
24,GGTTACACGTGATAGG,0.26
25,GAGGACACGTGGGTCG,0.05
26,GGGTTCACGTGTTAAG,0.38

row,Sequence,relative binding free energy [kcal/mol]
1,GTGGACACGTGGTTTG,0.01
2,TTGTCCACGTGATGGT,0.22
3,CAGTCCACGTGTGGGG,-0.04
4,GTGAACACGTGGGTCT,0.11
5,TTGGGCACGTGCATGT,-0.19
6,ATATGCACGTGATGGC,0.02
7,TTATTCACGTGGCGTT,0.17
8,AGGCGCACGTGATTTG,-0.02
9,AAACGCACGTGATGGG,0.02
10,AGGGGCACGTGGCAGA,-0.24
11,GGGAGCACGTGTGTCG,0.07
12,TGGAGCACGTGGGCTC,-0.22
13,ATGTACACGTGTTGAA,0.04
14,GGAGGCACGTGCGAGG,-0.1
15,AGTATCACGTGGTAAA,0.15
16,TGGTGCACGTGAGATG,0.21
17,ATTGACACGTGGGGGT,-0.07
18,GTCGTCACGTGTTTAG,0.18
19,ATCATCACGTGGTGGA,0.14
20,GAGGGCACGTGCGAGT,-0.04
21,TGGCTCACGTGAGGAT,0.23
22,CTTGGCACGTGGCTCG,-0.17
23,TAGGTCACGTGTATAA,0.02
24,GGGACCACGTGGTTAG,0.07
25,ATGGTCACGTGGCGTA,-0.03
26,TTGGCCACGTGATTGG,0.04

row,Sequence,relative binding free energy [kcal/mol]
1,TGTTGCACGTGACGAT,0.06
2,TGAAACACGTGCGGTT,0.05
3,TATCGCACGTGTTGGG,-0.05
4,AGCTTCACGTGGGGGA,0.09
5,TATAGCACGTGTAAAT,0.08
6,CGATTCACGTGTCGGT,0.38
7,CGAGACACGTGGGGAT,-0.08
8,TGATTCACGTGCGGTC,0.3
9,GTAAGCACGTGGAGGC,0.06
10,ATTGGCACGTGTTACA,-0.15
11,GTGGTCACGTGTAAAG,0.21
12,ATGCGCACGTGTGTTA,-0.14
13,GATAGCACGTGTGTGG,-0.06
14,CGCGGCACGTGGGTGG,-0.19
15,GTCTGCACGTGGATGT,0.12
16,GAAAGCACGTGGGGGG,-0.18
17,GATAGCACGTGGTGGT,-0.06
18,ATATGCACGTGGCATT,-0.2
19,GGGGACACGTGGTTGT,0.02
20,GAGGTCACGTGATGGC,0.46
21,TAGGTCACGTGTGAGT,0.16
22,AAGGTCACGTGTACGG,0.2
23,TGGTGCACGTGAAGGG,0.33
24,TGTTGCACGTGATGAT,0.23
25,GCGTGCACGTGCGTGG,-0.14
26,TTGGACACGTGAGATA,0.29

row,Sequence,relative binding free energy [kcal/mol]
1,TAGTGCACGTGCGAAT,0.02
2,GTTTGCACGTGTTACT,0.11
3,CTGTACACGTGAGCGG,0.25
4,GTTGACACGTGAGGAA,0.34
5,CAATACACGTGGAGGG,0.1
6,GAGGGCACGTGAGGAT,0.18
7,TGTTTCACGTGGTGTA,0.23
8,GATGGCACGTGGCATG,-0.09
9,GGTCACACGTGTGGGA,0.06
10,TCTGGCACGTGAGTAT,0.02
11,GGAATCACGTGCTTTT,0.17
12,CTAGTCACGTGGAGGC,0.14
13,CTTAGCACGTGTTTAA,0.02
14,ATTTGCACGTGAGTAA,0.37
15,TGTGGCACGTGGGTGA,-0.27
16,GGGTTCACGTGGATCG,0.38
17,TGCAGCACGTGTCGGG,0.02
18,TGTGGCACGTGATACA,0.1
19,TACGTCACGTGCTGTT,0.15
20,TGTCTCACGTGATTGG,0.2
21,GTTATCACGTGATTTT,0.38
22,ACAGTCACGTGTGTAG,0.14
23,GTCGCCACGTGGGAGG,-0.1
24,CATGGCACGTGGAAGT,0.1
25,TGGACCACGTGCGGGG,-0.2
26,GGGTGCACGTGGGTCT,-0.14

row,Sequence,relative binding free energy [kcal/mol]
1,AGACTCACGTGAGGGG,0.2
2,GGAAACACGTGCGTGG,-0.03
3,AATGGCACGTGAGTAT,0.05
4,CGAAGCACGTGGTTGG,-0.2
5,TTTCACACGTGGTTGC,0.09
6,GGGGTCACGTGTACGG,0.2
7,TTATGCACGTGGGAAT,-0.11
8,CGGAGCACGTGGGTGT,-0.23
9,GCGTCCACGTGTGTGG,0
10,GTTAACACGTGTAATG,0
11,TGCGTCACGTGTGGGC,0.14
12,TCTTTCACGTGGTTGG,0.31
13,ACAGTCACGTGTTAAT,0.18
14,GGTCACACGTGTATGG,0.18
15,AATTTCACGTGGAGGA,0.15
16,TGCGTCACGTGGACTT,0.18
17,ATGTACACGTGTCATT,0.06
18,TGTTACACGTGGGAGT,0.02
19,GAGGTCACGTGTGCGT,0.21
20,TTTTGCACGTGTCTCA,0.08
21,CTTGGCACGTGAGTGT,0.19
22,CGGTGCACGTGGAGTT,0
23,TATAGCACGTGAATTT,0.32
24,TAGGGCACGTGCTATG,-0.2
25,GTCTTCACGTGAGATG,0.44
26,GGAGGCACGTGTTGCT,-0.17

row,Sequence,relative binding free energy [kcal/mol]
1,CGGTTCACGTGACGGT,0.33
2,CGAGCCACGTGGGTGG,-0.31
3,TGAGACACGTGAGTTT,0.2
4,GTCGTCACGTGGGGTC,0.03
5,GTTCGCACGTGGAGCG,-0.02
6,TCATACACGTGATTTG,0.25
7,GATAGCACGTGTGGTA,0.03
8,GCTGGCACGTGTCTTA,0.13
9,TTTCTCACGTGTGGTT,0.32
10,GAGTGCACGTGGGTTT,-0.13
11,ATATACACGTGTACGG,0.13
12,GGTTACACGTGGGCCG,0.09
13,CTGAGCACGTGCGTGG,-0.2
14,CTGTTCACGTGTCGTG,0.34
15,ATGATCACGTGAGTGG,0.15
16,GAGGGCACGTGTAAGC,0.13
17,TGAAGCACGTGGTTCA,-0.04
18,AAATTCACGTGATTGA,0.48
19,AGATTCACGTGCGGGG,0.21
20,TATGGCACGTGTCGCG,-0.07
21,ATGGTCACGTGTTAGC,0.18
22,CGAGTCACGTGCGTTG,0.08
23,CTTTGCACGTGGGATT,0.02
24,TCTGACACGTGGAGTG,0.05
25,AGGATCACGTGGTGCG,-0.03
26,TTTGGCACGTGGGGTG,-0.19

row,Sequence,relative binding free energy [kcal/mol]
1,TTGTTCACGTGCTCGG,0.27
2,GGGGCCACGTGCGTTT,-0.12
3,ATATACACGTGTGTCG,-0.04
4,GTGGACACGTGGGTGA,-0.02
5,TTAATCACGTGTTAGA,0.09
6,GGTGACACGTGTATAG,0.11
7,AGTCACACGTGTGTTT,0.13
8,TTGCACACGTGTGGGG,0.16
9,GTTCACACGTGGTTAG,0.12
10,ATATTCACGTGTAGAT,0.23
11,GGGTACACGTGGGAAA,0.1
12,GGGTACACGTGTATGC,0.17
13,GGGGACACGTGGCGGG,-0.11
14,TATGTCACGTGGCGGG,0.1
15,TAGCGCACGTGTGTAT,-0.08
16,TTAGGCACGTGGAGAG,-0.05
17,GGTAGCACGTGTAGAA,0.03
18,ATTGCCACGTGTGAGT,-0.01
19,TTTTGCACGTGCAGTA,-0.12
20,CGTGTCACGTGCGTAA,0.05
21,TTTCGCACGTGATGGA,0
22,TTGTCCACGTGTGCTT,0.19
